Test results as given in the antibiotic and cytotoxicity screens of Wong et al. (2023).
This is one part of the list.

Assays:
HSkMC = human skeletal muscle cells; assay: cytotoxicity call (relative viability < 0.9); details: 10 µM
HepG2 = assay: cytotoxicity call (relative viability < 0.9); details: 10 µM
S. aureus RN4220 = assay: growth inhibition call (relative growth <= 0.2); details: 50 µM

| SMILES | cytotoxicity call (HSkMC) | cytotoxicity call (HepG2) | growth inhibition call (S. aureus RN4220) |
| --- | --- | --- | --- |
| C[C@@H]1CN([C@H](C)CO)C(=O)Cc2cc(NS(=O)(=O)c3ccc(Cl)cc3)ccc2O[C@H]1CN(C)C(=O)Nc1ccc(C(F)(F)F)cc1 | inactive | inactive | inactive |
| Cc1ccc(S(=O)(=O)N(C)C[C@@H]2Oc3ccc(NS(=O)(=O)c4ccccc4)cc3C(=O)N([C@H](C)CO)C[C@@H]2C)cc1 | inactive | inactive | inactive |
| C[C@H]1CN([C@@H](C)CO)C(=O)Cc2cc(NS(=O)(=O)c3cn(C)cn3)ccc2O[C@@H]1CN(C)C | inactive | inactive | inactive |
| C[C@H]1CN([C@@H](C)CO)C(=O)c2cc(NS(=O)(=O)c3cn(C)cn3)ccc2O[C@@H]1CN(C)S(=O)(=O)c1ccc(F)cc1 | inactive | inactive | inactive |
| O=C(N[C@H]1C=C[C@H](CC(=O)N2CCOCC2)O[C@H]1CO)c1ccccn1 | inactive | inactive | inactive |
| CCc1nc2ccccc2c(C(=O)Nc2cccc(Cl)c2)c1C | inactive | inactive | inactive |
| COc1ccc(CN(C)C[C@H]2OCCCC[C@H](C)Oc3ccc(NS(=O)(=O)c4ccc(Cl)cc4)cc3C(=O)N([C@H](C)CO)C[C@@H]2C)cc1 | inactive | inactive | inactive |
| C=C[C@]1(C)C[C@@H](OC(=O)CS[C@@H]2C[C@H]3CC[C@@H](C2)N3C)[C@]2(C)[C@H](C)CC[C@]3(CCC(=O)[C@H]32)[C@@H](C)[C@@H]1O | inactive | inactive | active |
| C[C@@H]1CCCCO[C@H](CN(C)Cc2ccc(C(F)(F)F)cc2)[C@H](C)CN([C@H](C)CO)C(=O)c2cc(NS(C)(=O)=O)ccc2O1 | inactive | inactive | inactive |
| C[C@@H]1CN([C@H](C)CO)C(=O)c2cc(NC(=O)CCCN(C)C)ccc2O[C@@H]1CN(C)S(=O)(=O)c1ccccc1 | inactive | inactive | inactive |
| C[C@H]1CN([C@@H](C)CO)C(=O)c2cc(NC(=O)CCN3CCOCC3)ccc2O[C@@H]1CN(C)S(=O)(=O)c1ccccc1 | inactive | inactive | inactive |
| COc1ccc(S(=O)(=O)N(C)C[C@@H]2Oc3ccc(NS(C)(=O)=O)cc3CC(=O)N([C@H](C)CO)C[C@H]2C)cc1 | inactive | inactive | inactive |
| C[C@H]1CN([C@@H](C)CO)C(=O)Cc2cc(NC(=O)Nc3ccc4c(c3)OCO4)ccc2O[C@H]1CN(C)C(=O)Nc1cccc2ccccc12 | inactive | inactive | inactive |
| COc1ccc(S(=O)(=O)N(C)C[C@@H]2Oc3ccc(NC(=O)CCN4CCOCC4)cc3CC(=O)N([C@H](C)CO)C[C@H]2C)cc1 | inactive | inactive | inactive |
| CO[C@@H]1CN(C)C(=O)c2cc(NS(=O)(=O)c3cn(C)cn3)ccc2OC[C@H](C)N(Cc2cccc(F)c2)C[C@@H]1C | inactive | inactive | inactive |
| C[C@H]1CN([C@@H](C)CO)C(=O)c2cc(NS(=O)(=O)c3ccc(Cl)cc3)ccc2O[C@H]1CN(C)S(C)(=O)=O | inactive | inactive | inactive |
| Cc1noc(C)c1S(=O)(=O)N(C)C[C@H]1OCCCC[C@H](C)Oc2ccc(NS(C)(=O)=O)cc2C(=O)N([C@H](C)CO)C[C@@H]1C | inactive | inactive | inactive |
| C[C@@H]1CN([C@@H](C)CO)C(=O)Cc2cc(NC(=O)c3ccncc3)ccc2O[C@@H]1CN(C)C(=O)NC1CCCCC1 | inactive | inactive | inactive |
| O=C(C[C@@H]1CC[C@@H]2[C@H](COC[C@@H](O)CN2S(=O)(=O)c2ccc(F)cc2)O1)NCc1ccc(Cl)c(Cl)c1 | inactive | inactive | inactive |
| O=C(CCCCCCC(=O)NO)NO | inactive | inactive | inactive |
| C[C@H]1CN([C@@H](C)CO)C(=O)Cc2cc(NS(=O)(=O)c3ccccc3)ccc2O[C@@H]1CN(C)S(=O)(=O)c1cccs1 | inactive | inactive | inactive |
| C[C@@H]1CN([C@@H](C)CO)C(=O)c2cc(NS(=O)(=O)c3ccc(Cl)cc3)ccc2O[C@@H](C)CCCCO[C@H]1CN(C)S(=O)(=O)c1cccs1 | inactive | inactive | inactive |
| CCO[C@@H]1OC(C(=O)N2CCN(Cc3ccccc3)CC2)=C[C@H](c2cn(C(C)=O)c3ccccc23)[C@H]1CCCOC(=O)NCCCCCC(=O)NO | inactive | inactive | inactive |
| CCCCCCCCCCCCCCCC[N+](C)(C)Cc1ccccc1.[Cl-] | active | active | inactive |
